Columns and labels:
gp130 = gp130 (Homo sapiens (Human), UniProt P40189); test: cell-based or functional assay
hIL-6 receptor = hIL-6 receptor (human, UniProt P08887); test: receptor binding assay by the method of Savino et al. 1994
Experimental: The proteins IL-6 DFRD/D160R (coded by the cDNA described in SEQ ID NO:4), IL-6 DFRD/W157R/D160R (coded by the cDNA described in SEQ ID NO:5) and IL-6 DFRD/T162D (coded by the cDNA described in SEQ ID NO:6) were produced according to the state of the art, as described (Arcone, R., Pucci, P., Zappacosta, F., Fontaine, V., Malorni, A., Marino, G., and Ciliberto, G., Eur. J. Biochem. 198, 541–547, 1991). The ability of the mutants to bind to the hIL-6 receptor was measured using state of the art methods, as described (Savino, R., Lahm, A., Salvati, A. L., Ciapponi, L., Sporeno, E., Altamura, S., Paonessa, G., Toniatti, C., Ciliberto, G., EMBO J. 13, 1357–1367, 1994). Table 1 below gives the receptor binding levels for wild type IL-6 and for the mutant forms obtained as described in example 1.

Biological activity on human hepatoma cells (gp130): 100% | ability to bind to the IL-6 receptor (% of wild type) (hIL-6 receptor): 100%
B1: wild type human interleukin-6 (ligand)
chain: not shown

— patent US5972902, “DNA encoding human IL-6 receptor antagonist and protein encoded thereby” (dated 1999)
